# Reference: the RNAGym collection of RNA variant scans (doi:10.1093/nar/gkz1192)
# The source gives no read counts; variants with many changes may rest on few reads.
# B1: CPEB3 Ribozyme (parent)
# chain: UAACAGGGGGCCACAGCAGAAGCGUUCACGUCGCAGCCCCUGUCAGAUUCUGGUGAAUCUGCGAAUUCUGCUGUAUAUCUC
# Variants of: B1
# Experiment: self-cleavage, relative activity (ratio to wild type); higher = more cleavage; in vitro, sequencing
# How it was run: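 After error-prone PCR and barcoding, CPEB3 ribozyme mutant libraries were transcribed with T7 RNA polymerase at 37°C for 5 hours, then given 15 min with DNase I before an EDTA stop, and they cleaved during both steps. Reverse transcription with template switching preceded Illumina sequencing. Relative activity divides a variant's cleaved/total read fraction by the unmutated ribozyme's. At least 5 reads were required per variant, and three batches were averaged.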
row,Variant,self-cleavage
1,U25C U48C U74A A77U,0.19
2,U25C U51C U72G,0.27
3,U25C U69C C81A,0.47
4,U25C U48C A56G A75U,0.11
5,U25C U31A U41C U48C U74C,0.18
6,U25C C32U A35G U43A U51G C62U,0.05
7,U25C U31C U43C U67A,0.1
8,U25C U26C U31C U43G U49A,0
9,U25C A75U U80C,0.27
10,U25C U41A G73U A75G U80C,0.04
11,U25C U26C U49A,0.28
12,U25C C32U A35U U72C,0.15
13,U25C C34U A64G,0.3
14,U25C U26A A45G A75U,0.34
15,U25C U31A U41A A47G U69A U72A,0.06
16,U25C U31C A75G U80C,0.11
17,U25C U43C A57G,0.23
18,U25C U26C A28G U54C A77G,0.25
19,U25C U26C U41C U49A G61U U69A U78C,0.06
20,U25C U49C U60C C71U,0.14
21,U25C U43C U51G A56G,0.35
22,U25C G36C U54C U58C,0.17
23,U25C G63A A65C U66C,0.12
24,U25C C29U U49C U67C,0.41

row,Variant,self-cleavage
1,U25C U26G U48C A57G,0.23
2,U25C G46A A77G,0.07
3,U25C U41A A56G A64U,0.07
4,U25C G30U U49C C68A A75U,0.11
5,U25C U26C U60C U69C,0.18
6,U25C U58C U60A G73A,0.2
7,U25C U43C G61C U72C,0.06
8,U25C U43C U49C,0.33
9,U25C U31C U54A A64U,0.12
10,U25C U26C U43C U66C,0.1
11,U25C U60C A64U U69C,0.14
12,U25C C32U G53A,0.18
13,U25C U26A U41G,0.31
14,U25C G33U U41C U51A G53A,0.13
15,U25C C38A A57G U69C U72C U76A,0.15
16,U25C U48C A57G,0.17
17,U25C C44U U60C U72C,0.09
18,U25C U26C U41A U51C U80A,0.21
19,U25C C38A C71U,0.08
20,U25G A35G A45U U72A,0.22
21,U25C C38U U54C U66A,0.13
22,U25C C39A G46A U49A,0.08
23,U25C U41C G53A,0.25
24,U25C G33A G46A,0.15

row,Variant,self-cleavage
1,U25C U43C G52A U54C A75U,0.22
2,U25C U26C U31A C40U A64G C68A,0.06
3,U25C U26C A64G U72A,0.07
4,U25C G53A A57G A77G U80C,0.36
5,U25C U54C A65G U66C C68A,0.18
6,U25C U41A A47G U51A,0.14
7,U25C U43C U48A,0.19
8,U25C U31C C40U A45U U72C C81A,0.06
9,U25C C29U U31A U41C U74C A77G,0.09
10,U25C U31A A57G C59U G63A,0.13
11,U25C U26C U66C,0.21
12,U25C U41C A77C,0.05
13,U25C U41C U66C U78C,0.31
14,U25G A28U C29G U54C,0.36
15,U25C U31A A77G,0.26
16,U25C U54C C62G,0.18
17,U25C U43C C62U A64U,0.28
18,U25C U31C U72A,0.21
19,U25C U49C U72C,0.05
20,U25C U48A U49C C50A A77G,0.07
21,U25C U41A U43C U69C,0.06
22,U25C U26C C40G U66C U69G U74C,0.12
23,U25C U26C G53C U78C,0.23
24,U25C U49A A56G U60A U78C,0.18

row,Variant,self-cleavage
1,U25C U26A U49A G70U,0.13
2,U25C U41G U78A,0.3
3,U25C U54G U66C,0.02
4,U25C U41A U72G U76A,0.07
5,U25C C62U U67C,0.13
6,U25C U43G U78C U80C,0.21
7,U25C U43A A64U,0.11
8,U25C U31C U51A U58C,0.07
9,U25C A75C U80C,0.28
10,U25C U51A C59A C71A,0.07
11,U25C C38A A56U U78C,0.05
12,U25C U41A U76A,0.11
13,U25C U48C U54A A65G A77C,0.19
14,U25C C32A C37A A65G U66C C79U,0.05
15,U25C C32U A47G,0.25
16,U25C C37U U54A U78C U80A,0.07
17,U25C U51C U66C,0.28
18,U25C G61C U67C,0.13
19,U25C C27U A35G,0.15
20,U25C C32U A77G,0.21
21,U25C U41C U69C,0.16
22,U25C C59A C62U U69C U74C A75G,0.03
23,U25C U49A C59A,0.11
24,U25C U26A U74C A77U,0.2

row,Variant,self-cleavage
1,U25C C37U C59U U60C,0.15
2,U25C U51A A56U U60A U66C,0.06
3,U25C U43C U66A A75U,0.14
4,U25C C27U C37U U43C A65G,0.06
5,U25C U48C U66G U78C,0.06
6,U25C G36A U43C U66C,0.31
7,U25C U72A A77G C79U,0.07
8,U25C G33C U58C,0.12
9,U25C C40U U49C U74C C79U,0.25
10,U25C U43C U51C U66C U72C,0.13
11,U25C U60C C79A,0.08
12,U25C C50A U58A,0.06
13,U25C U31C U54G,0.2
14,U25C C39G U41C U69C,0.06
15,U25C C29U U31A,0.17
16,U25C G36A C38A U49C A57U C71U,0.09
17,U25C G33A U51A,0.21
18,U25C U54C U60A U80A,0.18
19,U25C U41A U80C,0.2
20,U25C C38A A77U,0.08
21,U25C C27A U49C A56U,0.08
22,U25C G33U U49A A56G U58C U80C,0.06
23,U25C U31A C40U A64G C68A U80C,0.08
24,U25C U48C U67A U80G,0.06

row,Variant,self-cleavage
1,U25C C37G C39U A47G A57G,0.09
2,U25C U31A U54C G55U U66A U69A U80A,0.25
3,U25C U60C C62U U72C A75G U80C,0.13
4,U25G A28C A45G,0.56
5,U25C U43C U66A U67C,0.34
6,U25C G61A U69C,0.29
7,U25C G33A U49C A57G A65G A77U,0.04
8,U25C C68U A77G,0.4
9,U25C U26C U43A U74A,0.28
10,U25C U26C U41C U48C,0.05
11,U25C U31C C40U U48C,0.17
12,U25C U43A U76C,0.26
13,U25C G36C A45U U60C U67C,0.07
14,U25C G30A A45U A57G A64G U72A A77G,0.09
15,U25C U41A C50A,0.28
16,U25C U41A G55C,0.17
17,U25C C37U A45G U58A U67C U72A U80C,0.04
18,U25C U31A U41C C71G U78C,0.22
19,U25C U41C C62U A64G,0.49
20,U25C U41C A47G U51A,0.51
21,U25C U60A C71U,0.13
22,U25C U41C U69C A77U,0.08
23,U25C C37U G63U A65G U66C,0.05
24,U25C G33U U80C,0.55

row,Variant,self-cleavage
1,U25C C32A A45G A64U U78C,0.19
2,U25C G30U U58C C62U,0.11
3,U25C U49A U67A,0.08
4,U25C U49A U67C,0.04
5,U25C U74C U80C,0.65
6,U25C U48C A56G A57G C59U,0.14
7,U25C U67A U76A,0.39
8,U25C U58C A65G,0.16
9,U25C U31C A64U G73A A75U,0.1
10,U25C U26C A35U U66A A77C,0.07
11,U25C U41A A47G U49C U54A A64G U66C,0
12,U25C U41C U76A,0.44
13,U25C C40U U49A,0.06
14,U25C G42C U43C U49C U67A U78C,0
15,U25C U31C A64U,0.27
16,U25C C38A U66C,0.15
17,U25C U43C U49C U66C U69A,0.06
18,U25C U26A U31C C34U A47G,0.04
19,U25C U41A U48C U51A U67C U72A,0.04
20,U25C U49C U54A U72G U80C,0.26
21,U25C U43C A56G U67A,0.09
22,U25C U58C U69A,0.24
23,U25C U48C U72C U78C U80C,0.09
